# The list shows a part of the results.
# B1: GSL-I-B4 (Griffonia simplicifolia) (protein)
# chain: NFWSDVEDSIIFQGDANTTAGTLQLCKTNQYGTPLQWSAGRALYSDPVQLWDNKTESVASFYTEFTFFLKITGNGPADGLAFFLAPPDSDVKDAGEYLGLFNKSTATQPSKNQVVAVEFDTWTNPNFPEPSYRHIGINVNSIVSVATKRWEDSDIFSGKIATARISYDGSAEILTVVLSYPDGSDYILSHSVDMRQNLPESVRVGISASTGNNQFLTVYILSWRFSSNLQSTSVKAAMEPEITRTVV
# Columns and labels:
# Test in all cases: glycan array binding signal (z-score within array); higher = stronger binding
# Settings in all cases: glycan notation: IUPAC condensed, linker removed
# [1] = biological target: GalNAc(b1-4)GlcNAc(b1-2)Man
# How it was run: (§1)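 The Consortium for Functional Glycomics database supplied 3228 glycan arrays, of which those lacking an available protein sequence were dropped. The binding signal, a within-array Z-score, was averaged across arrays of the same protein sequence and across linkers. Negative scores can be read as non-binding.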
# [2] = biological target: GalNAc(b1-4)GlcNAc(b1-2)Man(a1-3)[GalNAc(b1-4)GlcNAc(b1-2)Man(a1-6)]Man(b1-4)GlcNAc(b1-4)GlcNAc
# How it was run: as §1
# [3] = biological target: GalNAc(b1-4)GlcNAc(b1-3)GalNAc(b1-4)GlcNAc
# How it was run: as §1
# GalNAc(b1-4)GlcNAc6S = biological target: GalNAc(b1-4)GlcNAc6S
# How it was run: as §1
# GalNAc(b1-6)GalNAc = biological target: GalNAc(b1-6)GalNAc
# How it was run: as §1
# GalNAc3S(b1-4)GlcNAc = biological target: GalNAc3S(b1-4)GlcNAc
# How it was run: as §1
# GalNAc3S(b1-4)GlcNAc3S = biological target: GalNAc3S(b1-4)GlcNAc3S
# How it was run: as §1
# [4] = biological target: GalNAc3S(b1-4)[Fuc(a1-3)]GlcNAc
# How it was run: as §1
# GalNAc4S6S(b1-4)GlcNAc = biological target: GalNAc4S6S(b1-4)GlcNAc
# How it was run: as §1
# GalNAc6S(b1-4)GlcNAc = biological target: GalNAc6S(b1-4)GlcNAc
# How it was run: as §1
# Glc(a1-4)Glc = biological target: Glc(a1-4)Glc
# How it was run: as §1
# [5] = biological target: Glc(a1-4)Glc(a1-4)Glc(a1-4)Glc
# How it was run: as §1
# Glc(a1-6)Glc(a1-6)Glc = biological target: Glc(a1-6)Glc(a1-6)Glc
# How it was run: as §1
# [6] = biological target: Glc(a1-6)Glc(a1-6)Glc(a1-6)Glc
# How it was run: as §1
# Glc(b1-4)Glc = biological target: Glc(b1-4)Glc
# How it was run: as §1
# Glc(b1-6)Glc = biological target: Glc(b1-6)Glc
# How it was run: as §1
# GlcA(b1-3)Gal = biological target: GlcA(b1-3)Gal
# How it was run: as §1
# GlcA(b1-3)GlcNAc = biological target: GlcA(b1-3)GlcNAc
# How it was run: as §1
# GlcA(b1-6)Gal = biological target: GlcA(b1-6)Gal
# How it was run: as §1
# [7] = biological target: GlcA3S(b1-3)Gal(b1-4)GlcNAc(b1-2)Man
# How it was run: as §1
# [8] = biological target: GlcA3S(b1-3)Gal(b1-4)GlcNAc(b1-3)Gal(b1-4)Glc
# How it was run: as §1
# [9] = biological target: GlcNAc(a1-3)Gal(b1-4)GlcNAc
# How it was run: as §1
# [10] = biological target: GlcNAc(a1-4)Gal(b1-3)GlcNAc
# How it was run: as §1
# [11] = biological target: GlcNAc(a1-4)Gal(b1-4)GalNAc
# How it was run: as §1
# [12] = biological target: GlcNAc(a1-4)Gal(b1-4)GlcNAc
# How it was run: as §1
# [13] = biological target: GlcNAc(a1-4)Gal(b1-4)GlcNAc(b1-3)Gal(b1-4)Glc
# How it was run: as §1
# [14] = biological target: GlcNAc(a1-4)Gal(b1-4)GlcNAc(b1-3)Gal(b1-4)GlcNAc
# How it was run: as §1
# [15] = biological target: GlcNAc(a1-4)Gal(b1-4)GlcNAc(b1-3)Gal(b1-4)GlcNAc(b1-3)Gal(b1-4)GlcNAc
# How it was run: as §1
# [16] = biological target: GlcNAc(a1-4)Gal(b1-4)GlcNAc(b1-3)Gal(b1-4)[Fuc(a1-3)]GlcNAc(b1-3)Gal(b1-4)[Fuc(a1-3)]GlcNAc
# How it was run: as §1
# [17] = biological target: GlcNAc(a1-6)Gal(b1-4)GlcNAc
# How it was run: as §1
# [18] = biological target: GlcNAc(b1-2)Gal(b1-3)GalNAc
# How it was run: as §1
# [19] = biological target: GlcNAc(b1-2)Man(a1-3)[GlcNAc(b1-2)Man(a1-6)]Man(b1-4)GlcNAc(b1-4)GlcNAc
# How it was run: as §1
# [20] = biological target: GlcNAc(b1-2)Man(a1-3)[GlcNAc(b1-2)Man(a1-6)]Man(b1-4)GlcNAc(b1-4)[Fuc(a1-6)]GlcNAc
# How it was run: as §1
# [21] = biological target: GlcNAc(b1-2)Man(a1-3)[GlcNAc(b1-4)][GlcNAc(b1-2)Man(a1-6)]Man(b1-4)GlcNAc(b1-4)GlcNAc
# How it was run: as §1
# [22] = biological target: GlcNAc(b1-2)Man(a1-3)[GlcNAc(b1-4)][GlcNAc(b1-2)Man(a1-6)]Man(b1-4)GlcNAc(b1-4)[Fuc(a1-6)]GlcNAc
# How it was run: as §1
# [23] = biological target: GlcNAc(b1-2)[GlcNAc(b1-4)]Man(a1-3)[GlcNAc(b1-2)Man(a1-6)]Man(b1-4)GlcNAc(b1-4)GlcNAc
# How it was run: as §1
# [24] = biological target: GlcNAc(b1-2)[GlcNAc(b1-4)]Man(a1-3)[GlcNAc(b1-4)][GlcNAc(b1-2)Man(a1-6)]Man(b1-4)GlcNAc(b1-4)GlcNAc
# How it was run: as §1
binder,measurement,setting,value
B1,glycan array binding signal (z-score),[1],-0.163
same,glycan array binding signal (z-score),[2],0.223
same,glycan array binding signal (z-score),[3],-0.193
same,glycan array binding signal (z-score),GalNAc(b1-4)GlcNAc6S,-0.146
same,glycan array binding signal (z-score),GalNAc(b1-6)GalNAc,-0.216
same,glycan array binding signal (z-score),GalNAc3S(b1-4)GlcNAc,-0.159
same,glycan array binding signal (z-score),GalNAc3S(b1-4)GlcNAc3S,-0.261
same,glycan array binding signal (z-score),[4],-0.182
same,glycan array binding signal (z-score),GalNAc4S6S(b1-4)GlcNAc,-0.233
same,glycan array binding signal (z-score),GalNAc6S(b1-4)GlcNAc,-0.245
same,glycan array binding signal (z-score),Glc(a1-4)Glc,-0.173
same,glycan array binding signal (z-score),[5],-0.156
same,glycan array binding signal (z-score),Glc(a1-6)Glc(a1-6)Glc,-0.122
same,glycan array binding signal (z-score),[6],-0.126
same,glycan array binding signal (z-score),Glc(b1-4)Glc,-0.097
same,glycan array binding signal (z-score),Glc(b1-6)Glc,-0.09
same,glycan array binding signal (z-score),GlcA(b1-3)Gal,-0.154
same,glycan array binding signal (z-score),GlcA(b1-3)GlcNAc,-0.167
same,glycan array binding signal (z-score),GlcA(b1-6)Gal,-0.127
same,glycan array binding signal (z-score),[7],-0.216
same,glycan array binding signal (z-score),[8],-0.14
same,glycan array binding signal (z-score),[9],-0.06
same,glycan array binding signal (z-score),[10],-0.171
same,glycan array binding signal (z-score),[11],-0.121
same,glycan array binding signal (z-score),[12],-0.12
same,glycan array binding signal (z-score),[13],-0.074
same,glycan array binding signal (z-score),[14],-0.024
same,glycan array binding signal (z-score),[15],0.024
same,glycan array binding signal (z-score),[16],-0.12
same,glycan array binding signal (z-score),[17],0.034
same,glycan array binding signal (z-score),[18],-0.186
same,glycan array binding signal (z-score),[19],-0.199
same,glycan array binding signal (z-score),[20],-0.143
same,glycan array binding signal (z-score),[21],-0.176
same,glycan array binding signal (z-score),[22],-0.196
same,glycan array binding signal (z-score),[23],-0.028
same,glycan array binding signal (z-score),[24],-0.108

# — the supplement of paper PMC8728848
